The full ranking holds about 13,000 compounds; the median of “IFI” is about 4, and the highest 2% start at about 17. The list shows a part of the results.

The assay can be described thus: GSK_TCMDC: Inhibition Frequency Index (IFI). The number of non-kinase HTS assays where a compound showed > 50 % inhibition, expressed as a percentage of the number of such assays in which the compound was tested (-0 is zero). The assay is classed as functional.
`COc1cc2c(cc1C(F)(F)F)N(C(=O)Nc1cc(OC(F)(F)F)cc(-c3cccnc3)c1)CC2`: the IFI is 3.91%.

With `O=C(/C=C/c1ccc(C(F)(F)F)cc1)N1CCC(CCN2CCC(c3c[nH]c4ccccc34)CC2)CC1`, the IFI came out at 7.86%.

The compound `Cc1cccc2nc(-c3ccc(-c4cccc(CN5CCCCC5)c4)s3)[nH]c12` showed an IFI of -0%.

With `Cc1nn(-c2ccccc2)nc1C(=O)N(Cc1ccc(-c2ccc(CNCCc3ccc(S(C)(=O)=O)cc3)cn2)cc1)C1CC1`, the IFI turned out to be 5.56%.

Consider `CN(C)c1ccc(C2c3[nH]cnc3CCN2C(=O)Nc2cccc([N+](=O)[O-])c2)cc1` (centres undefined), for which the IFI turned out to be 12.2%.

Regarding `CN1CCC(NCc2ccc(-c3ccc(C(F)(F)F)cc3)cc2)CC1`, the IFI stood at 5.15%.

In turn, `c1cncc(-c2cc(N3CCc4ccccc4C3)nc(-c3ccncc3)n2)c1` had an IFI of 6.38%.

For the compound `COCCCNc1nc2cc(OC)c(OC)cc2c2nc(-c3ccccc3)nn12`, the IFI was found to be 0.93%.

For `COc1cccc2c(N/N=C/c3ccc([N+](=O)[O-])cc3)ccnc12`, the IFI is 0.72%.

`O=C(N[C@@H](CC1CCCCC1)C(=O)NC1CCCCC1)c1ccc(O)c(-c2cccc(C(F)(F)F)c2)c1`: the IFI stood at 2.19%.

On to `COc1ccc(CNC2Cc3ccccc3C2)cc1-c1ccc(OC)c(S(=O)(=O)NCCN2CCCC2)c1`, for which the IFI was determined as 7.69%.

In the case of `Cc1ccc2nc(N(CCCn3ccnc3)C(=O)C=Cc3cccs3)sc2c1`, the IFI is 4.26%.

`COc1nc2c(CCN3CC[C@H](NCc4cc(C#N)c5c(c4)CCO5)[C@H](O)C3)ccnc2cc1F`: the IFI came to 2.97%.

Take `Cn1nccc1C(=O)NCCNCc1cccc(-c2cccc(-c3nc4cc(C(F)(F)F)ccc4[nH]3)c2)c1`: the IFI came to 8.91%.

For `CC(C)(C)OC(=O)Cn1cnc2cc(NC(=O)c3cc([N+](=O)[O-])cc([N+](=O)[O-])c3)ccc21`, the IFI came out at 0.71%.

`CC(=NNC(S)=NCCc1ccccn1)c1ccccn1`: the IFI turned out to be 6.78%.

`O=C(/C=C/c1ccc(Cl)c(Cl)c1)NCCCCCN1CCC(NC(=S)Nc2ccc(Cl)cc2Cl)CC1` had an IFI of 11.6%.

Consider `COC(=O)c1ccc2nc(-c3ccc(C(=O)NCc4ccc(Cl)c(Cl)c4)cc3)[nH]c2c1`, for which the IFI was determined as 0.76%.

The compound `N#Cc1ccc(N/C(=N\c2ccccc2Br)N(C2CCCCC2)C2CCCCC2)c(O)c1` registered an IFI of 3.76%.

Compound `COc1ccc(Cl)cc1N1CCN(CCCNC(=O)c2ccc(-c3nc4cc(Cl)c(C)cc4[nH]3)c(F)c2)CC1` had an IFI of 1.54%.

Compound `Cc1ccccc1CN1CCCN(Cc2ccc(C(=O)Nc3ccc(C(C)(C)C)cc3)cc2)CC1` gave an IFI of 18.4%.

The compound `Cc1ccc(NC(=O)N2CCCN(CCCCCNC(=O)/C=C/c3ccc(Cl)c(Cl)c3)CC2)cc1C` came in with an IFI of 4.64%.

`CN1C(=CC(=O)NC(=O)c2ccccc2)C(C)(C)c2ccccc21` had an IFI of 0.81%.

For the compound `CCN(CC)c1ccc(C(c2ccc(N(CC)CC)cc2)c2cccc([N+](=O)[O-])c2)cc1`, the IFI turned out to be 3.65%.

Consider `c1cc(CN2CCCCC2)cc(OCCCNc2ccnc3ccccc23)c1`, for which the IFI worked out at 5.8%.

Take `CCc1ccc(S(=O)(=O)Nc2ccc(CCN3CCC(N4CCCCC4)CC3)cc2)cc1`: the IFI was 9.23%.

In turn, `COc1ccc(C2=CCN(c3ccc(Cl)c(Cl)c3)C2=O)cc1OCCN1CCCCC1` came in with an IFI of 7.32%.

The compound `Cc1cnc(NC(=O)c2cn(-c3ccccc3)nc2-c2cccs2)s1` gave an IFI of 0.88%.

For the compound `C(=NNc1nc2ccccc2[nH]1)c1ccccc1OCc1ccccc1`, the IFI was 0.71%.

On to `COc1ccc(-c2cccc(NC(=O)c3ccc(C#N)cc3)c2)cc1CN1CCCN(C)CC1`, for which the IFI stood at 5.94%.

The compound `Cc1cc(Nc2nc(Nc3cccc(Cl)c3)nc3ccccc23)n[nH]1` returned an IFI of 6.29%.

Compound `COc1cc(-c2nnc(SCC(=O)Nc3cc(C)on3)n2C)cc(OC)c1O` showed an IFI of 1.41%.

As for `O=C(CCCCCNC(=O)c1ccc(O)c(-c2ccc(Cl)c(Cl)c2)c1)NCCN1CCCCC1`, the IFI turned out to be 0.74%.

The compound `Cc1ccc(CNC(=O)[C@H](CC(C)C)Nc2cc(C)nc(Nc3ccccc3)n2)cc1` showed an IFI of 5%.

`CCOc1c(CNCCCNc2nc3ccccc3[nH]2)cc(I)cc1OC` displayed an IFI of 5.76%.

For the compound `Cc1noc(C)c1-c1cccc(CNCc2cccc(-c3cccc(-c4nc5ccccc5[nH]4)c3)c2)c1`, the IFI was found to be 3.92%.

Consider `O=C(/C=C/c1ccc(Cl)c(Cl)c1)NCCCCCN1CCC(NC(=O)c2cccc(Cl)c2)CC1`, for which the IFI amounted to 2.38%.

Compound `C#CCOc1ccc(N2C(N)=NC(N)=NC2(C)C)cc1` showed an IFI of 2.27%.

`Cc1ccc(CNC(=O)c2cnc(N3CCN(c4ccncc4)CC3)c(Cl)c2)cc1`: the IFI was found to be 11.9%.

In turn, `CCOc1ccc2c(=NN=Cc3ccccn3)cc(C)[nH]c2c1` displayed an IFI of 1.41%.

Regarding `CCCCC(=O)Nc1cc(=O)[nH]c2nc(-c3ccc(Cl)cc3)nn12`, the IFI is 0%.

Compound `Cn1c(NC(=O)C2CCCN(C(=O)c3ccc(O)c(-c4ccc(Cl)c(Cl)c4)c3)C2)nc2ccccc21` (centres undefined) gave an IFI of 1.5%.

On to `CN(C)Cc1ccc(-c2cc3c(-c4ccc(CN(C)C)cc4)ccnc3[nH]2)cc1`, for which the IFI was determined as 0%.

`CCCc1ccc(N2C(N)=NC(N)=NC2(C)C)cc1` returned an IFI of 1.41%.

On to `O=C(O)c1ccc(OCOCOc2ccc(C(=O)O)c(O)c2)cc1O`, for which the IFI is -0%.

Compound `CC(C)Sc1nc2c(c(=O)n1Cc1ccco1)C1(CCCCC1)Cc1ccccc1-2` gave an IFI of -0%.

`CCOc1ccc(N(CC)S(=O)(=O)c2cc(Br)cc3c2N(C(=O)C2CC2)CC3)cc1` came in with an IFI of 1.41%.

With `Cc1ccc(CNC(=O)[C@H](CC(C)C)Nc2cc(C)nc(NCc3ccccc3C)n2)cc1`, the IFI stood at 7.32%.

In the case of `Cc1cc(N2CCCC2)nc(Nc2ccc(NC(=O)c3ccccc3C)cc2)n1`, the IFI turned out to be 10.8%.

In turn, `O=C(NCc1ccc(Cl)cc1)c1ccc(C(=O)NCC2CCCN2CC2CCCCC2)cc1` (centres undefined) had an IFI of 6.09%.

`Cc1cc(C)c2oc(-c3cccc(NC(=O)c4ccc([N+](=O)[O-])o4)c3C)nc2c1` gave an IFI of 4.38%.

Take `Cc1cccc2nc(-c3ccc(-c4ccc(CNCc5ccccc5)cc4)s3)[nH]c12`: the IFI was 9.62%.

Take `COc1ccc2nc3cc(Cl)ccc3c(Nc3ccc(O)c(CN4CC5CCC(CC5)C4)c3)c2c1`: the IFI is 6.43%.

Compound `CC(C)CNCc1ccc(-c2cccc(CN(CCN(C)C)C(=O)NCCc3ccccc3)c2)cc1` yielded an IFI of 7.19%.

Turning to `Cc1cccc2nc(-c3ccc(-c4cccc(CN5CCC(N)C5)c4)s3)[nH]c12` (centres undefined), the IFI turned out to be 5.71%.

Turning to `COc1cccc(C(=O)NCCOc2ccccc2)c1Oc1ccccc1`, the IFI was 0.71%.

`Cc1c(S(=O)(=O)Nc2cccc(CCN3CCCCC3CCN3CCCC3)c2)sc2ccc(Cl)cc12` (centres undefined) came in with an IFI of 12.5%.

For the compound `Cc1cc(N)nc2ccc(-c3ccc(CCN)cc3)cc12`, the IFI came out at 4.17%.

The compound `CCN(CC)CCN(Cc1ccc(-c2ccc(Br)cc2)cc1)C(=O)Cn1c(CCc2cccc(F)c2F)nc(=O)c2ccccc21` displayed an IFI of 4.32%.

`CC(=O)N1N=C(c2cccs2)Sc2c1nc(-c1ccc(Cl)cc1)n2C(C)=O` came in with an IFI of 8.16%.

Regarding `CC(=O)N(C)/N=C/[C@H](CCc1ccccc1)NC(=O)[C@H](CC(C)C)NC(=O)c1cccc(OCCN2CCOCC2)c1`, the IFI came out at 2.75%.

With `O=C(Nc1cccc(-c2csc(-c3ccccc3)n2)c1)c1cccs1`, the IFI stood at 4.35%.

In turn, `Cc1nc2ccc(NC(=O)c3cc(S(=O)(=O)N(C)C)ccc3Cl)cc2s1` yielded an IFI of 3.39%.

`CCc1cn(C)c2c(N3CCCC3=O)cc(C(=O)N[C@@H](Cc3ccccc3)[C@H](O)CNC(C)(C)CCCC(C)C)cc12` yielded an IFI of 3.68%.

In turn, `O=C(/C=C/c1ccc(Cl)c(Cl)c1)NCCCCCN1CCC(NC(=O)c2ccc(F)c(F)c2)CC1` displayed an IFI of 6.35%.

`O=[N+]([O-])c1cccc(Nc2nccc(-c3cnn4ncccc34)n2)c1`: the IFI was 11.1%.

Compound `O=[N+]([O-])c1cc(/C=N/Nc2nc3nonc3nc2Nc2ccc(F)cc2)c(Cl)cc1Cl` came in with an IFI of 4.58%.

`O=C(Nc1cccc(-c2ccc(-c3nc4cc(C(F)(F)F)ccc4[nH]3)s2)c1)c1ccncc1` registered an IFI of 6.48%.

On to `CCc1cc(I)c2c(c1)C(NCCCNc1cc(=O)c3ccccc3[nH]1)CCN2` (centres undefined), for which the IFI was determined as 3.62%.

Take `COc1cc(Cc2cnc(N)nc2N)cc(OCCCCCC(N)=O)c1OC`: the IFI amounted to 0.74%.

`O=C(N[C@@H](Cc1ccccc1)C(=O)NC1CCCc2ccccc21)c1ccc(O)c(-c2ccc(Cl)c(Cl)c2)c1` (some centres undefined) gave an IFI of 2.22%.

In the case of `N#Cc1cccc(NC(=O)Nc2cccc(-c3cccc(-c4nc5cc(F)ccc5[nH]4)c3)c2)c1`, the IFI is 9.09%.

In the case of `COc1ccc(-c2ccc(NC(=O)c3ccc(C#N)cc3)cc2)cc1CN1CCC(O)CC1`, the IFI turned out to be 2.97%.

Turning to `Cc1cccc2nc(-c3ccc(-c4ccc(CNCc5ccccc5)cc4)cc3)[nH]c12`, the IFI was 3.88%.

Turning to `O=C(Nc1cc(C(F)(F)F)cc(C(F)(F)F)c1)Nc1ccc(Cl)c(Cl)c1`, the IFI is 19.1%.

In turn, `COCCCn1c(=N)c(C(=O)NCCc2ccc(OC)cc2)cc2c(=O)n3cccc(C)c3nc21` gave an IFI of 1.72%.

`Cc1cccc2nc(-c3ccc(-c4cccc(NC(=O)Nc5ccc(Cl)c(Cl)c5)c4)s3)[nH]c12`: the IFI worked out at 5%.

`CC(C)c1ccc(Nc2nc(NCCc3c[nH]cn3)nc(NCc3ccccc3)n2)cc1` registered an IFI of 1.5%.

On to `O=C(CNC1=NCCN1)Nc1ccc(NC(=O)Nc2ccc(NC(=O)CNC3=NCCN3)cc2)cc1`, for which the IFI was determined as 1.54%.

Consider `c1ccc2c(c1)cc(CNCCCN1CCN(CCCNCc3cc4ccccc4c4ccccc34)CC1)c1ccccc12`, for which the IFI was 19.4%.

For `CC(Cc1ccc(C(=O)N2CCN(C(=O)c3ccc(CC(C)NCCc4cccc(Cl)c4)cc3)CC2)cc1)NCCc1cccc(Cl)c1` (centres undefined), the IFI stood at 9.29%.

`COc1cc(C2CCN(CCCCNC(=O)c3ccc(NC(=O)c4cc(C(F)(F)F)cc(C(F)(F)F)c4)cc3)CC2)ccc1OC(C)C` displayed an IFI of 7.83%.

For the compound `Oc1cccc(CCNCCCCCCNCCc2ccc(Cl)cc2)c1`, the IFI amounted to 2.94%.

In turn, `CCOc1cccc(C(=O)Nc2nonc2-c2ccc(OC)c(OC)c2)c1` registered an IFI of -0%.

`COc1ccc(-n2ccnc2SCC(=O)Nc2cccc(C(F)(F)F)c2)c(OC)c1`: the IFI came out at 1.53%.

`O=C(CCc1c[nH]cn1)Nc1ccc(-c2ccc(-c3nc4cc(F)ccc4[nH]3)cc2)cc1`: the IFI stood at 6.48%.

On to `CNCCNCc1cccc(-c2cccc(-c3nc4cccc(C)c4[nH]3)c2)c1`, for which the IFI was found to be 7.84%.

With `CC(=O)N1CCN(c2ccc(NC(=O)c3oc(-c4ccccc4)nc3C(F)(F)F)cn2)CC1`, the IFI came to 0%.

As for `COc1ccc(CNCc2ccc(-c3ccc(-c4nc5cc(C(F)(F)F)ccc5[nH]4)s3)cc2)cc1`, the IFI stood at 11.5%.

The record behind these values is ChEMBL document CHEMBL1157539, “Thousands of chemical starting points for antimalarial lead identification” (Nature, 2010).
